A compilation of properties of binary mixtures (doi:10.1016/j.molliq.2019.112281)
Some of these densities may be calculated back from excess volumes.

Test: xn = mol fraction of the nth substance listed
Conditions: 100 kPa

CCCC[N+](CCCC)(CCCC)CCCC.[Cl-] + O
mass density [kg/m3]
Conditions | x1 = 0.039 | x1 = 0.1 | x1 = 0.15 | x1 = 0.201 | x1 = 0.22
293.2 K | 988.3 | 971.1 | 961.4 | 955.7 | 954.3
298.2 K | 984.9 | 967.6 | 958.1 | – | 951.1
303.2 K | 981.5 | 964.1 | 954.8 | 949.3 | 947.9
308.2 K | – | 960.6 | – | 946 | 944.7
313.2 K | 974.6 | 957 | 948 | – | 941.5
318.2 K | 971.1 | 953.5 | 944.6 | 939.5 | 938.2
323.2 K | – | 949.9 | 941.2 | 936.2 | 935
328.2 K | 963.9 | 946.3 | 937.8 | 933 | –
333.2 K | 960.3 | 942.7 | 934.4 | – | 928.5
338.2 K | 956.6 | 939 | 930.9 | – | 925.3
343.2 K | 952.9 | 935.4 | – | 923.1 | 922
348.2 K | 949.2 | – | 924 | 919.8 | 918.7

CC[N+](CC)(CC)CC.[Cl-] + O
mass density [kg/m3]
Conditions | x1 = 0.051 | x1 = 0.102 | x1 = 0.151
293.2 K | 1009.2 | – | 1033.1
298.2 K | – | 1021.5 | 1030
303.2 K | 1004.6 | 1018.5 | –
308.2 K | 1002.2 | 1015.5 | 1023.7
313.2 K | 999.7 | 1012.5 | –
318.2 K | 997.1 | 1009.4 | 1017.3
323.2 K | 994.4 | 1006.3 | 1014.1
328.2 K | 991.6 | 1003.2 | 1010.8
333.2 K | 988.7 | – | 1007.5
338.2 K | 985.8 | 996.8 | 1004.2
343.2 K | 982.8 | 993.5 | 1000.9
348.2 K | 979.8 | – | 997.8

C[N+](C)(C)CCO.[Br-] + O
mass density [kg/m3]
Conditions | x1 = 0.05 | x1 = 0.1 | x1 = 0.149 | x1 = 0.199 | x1 = 0.248 | x1 = 0.3
293.2 K | 1114.9 | 1186.9 | 1231.2 | 1266.5 | – | 1314.2
298.2 K | 1112.9 | 1184.5 | – | 1263.8 | 1290 | 1311.3
303.2 K | – | 1182.1 | – | 1261.1 | 1287.1 | 1308.4
308.2 K | 1108.6 | – | – | 1258.3 | – | 1305.5
313.2 K | 1106.2 | – | 1220.7 | 1255.5 | 1281.5 | 1302.7
318.2 K | 1103.8 | 1174.4 | 1218 | 1252.7 | 1278.7 | 1299.8
323.2 K | – | 1171.7 | 1215.2 | 1249.9 | 1275.8 | 1296.9
328.2 K | 1098.7 | 1169 | – | 1247.1 | 1273 | 1294
333.2 K | 1096 | – | 1209.5 | 1244.2 | 1270.1 | 1291
338.2 K | 1093.1 | 1163.4 | 1206.7 | 1241.3 | – | –
343.2 K | – | 1160.5 | 1203.8 | 1238.4 | 1264.3 | 1285.2
348.2 K | 1087.4 | – | 1200.9 | – | 1261.4 | 1282.3
